# Measured values reported in patent publication US20090155164A1 (Amgen, published 2009).
# B1: anti-c-fms hybridoma antibody 1.39 (antibody, IgG1, V domains shown)
# VH: [about 100 residues cut from this listing]EGPYSDYGYYYYGMDVWGQGTTVTVSS
# VL: DIQMTQSPSSLSASVGDRVTITCQASQDISNYLNWYQQKPGKAPKVLIYDASNLETGVPSRFSGSGSGTDFTFTISSLQPEDIATYYCQQYDNLLTFGGGTKVEIK
# notes: Hybridoma IgG1 (cohort 1); also called 1.39.3; 1.39.2
# B2: anti-c-fms hybridoma antibody 1.26 (antibody, IgG1, V domains shown)
# VH: not shown
# VL: B1 VL with Q38H, V46L
# notes: Hybridoma IgG1 (cohort 1); also called 1.26.1
# B3: anti-c-fms hybridoma antibody 1.27 (antibody, IgG1, V domains shown)
# VH: not shown
# VL: B1 VL with V46L
# notes: Hybridoma IgG1 (cohort 1); also called 1.27.3; 1.27.2
# B4: anti-c-fms hybridoma antibody 2.103 (antibody, IgG2, V domains shown)
# VH: [about 100 residues cut from this listing]EYYHILTGSFYYSYYGMDVWGQGTTVTVSS
# VL: B1 VL with K39R, V46L
# notes: Hybridoma IgG2 (cohort 2); also called 2.103.1; 2.103.3
# B5: anti-c-fms hybridoma antibody 1.144 (antibody, IgG1, V domains shown)
# VH: not shown
# VL: B1 VL with Q38H, V46L
# notes: Hybridoma IgG1 (cohort 1); also called 1.144.1
# B6: anti-c-fms hybridoma antibody 1.34 (antibody, IgG1, V domains shown)
# VH: not shown
# VL: B1 VL with V46L
# notes: Hybridoma IgG1 (cohort 1)
# Biological target: T1, cynomolgus monkey c-fms on primary bone marrow cells (cynomolgus monkey)
# Test: cell-based or functional assay
row,Cynomolgus bone marrow bioassay IC50 [ng/mL],Binder
1,30,B1
2,5,B2
3,140,B3
4,4,B4

# Biological target: T2, human c-fms, full length, on cells (human, UniProt P07333 20-972)
# Test: cell-based or functional assay
AML-5 bioassay IC50 [ng/mL],Human CD14+ monocytes bioassay IC50 [ng/mL],Binder
4,10,B1
4,2,B2
11,30,B3
8,20,B4

# Biological target: T3, monomeric human c-fms (residues 1-512)-pHis (human, UniProt P07333 in part)
# T3 construct: Construct stated as residues 1-512; signal stated as amino acids 1-19 and left out; also called human c-fms (1-512).pHIS; monomeric c-fms
# Test: Biacore, low resolution; hybridoma mAb captured on anti-human IgG, monomeric c-fms-pHis analyte at 125 nM
# Experimental: Anti-human IgG was immobilized on all four flow cells of a sensor chip using amine coupling. Crude hybridoma samples were diluted into halves and captured on the anti-IgG surface. […] Sequence lineage analyses were also performed on the 29 hybridomas (see, FIG. 2).
Kd [nM],koff [s⁻¹],kon [M⁻¹ s⁻¹],Binder
5.4,0.000608,113000,B1
11,0.00263,239000,B2
33,0.01,299000,B3
11,0.0025,230000,B5
36,0.0131,365000,B6
4.8,0.000364,75100,B4

# Biological target: T1, cynomolgus monkey c-fms on primary bone …
# Test: cell-based or functional assay
# Remark: another data set of the same source
row,Cynomolgus bone marrow bioassay IC50 [nM],Binder
1,0.067,B1
2,0.033,B2
3,0.933,B3
4,0.027,B4

# Biological target: T2, human c-fms, full length, on cells
# Test: cell-based or functional assay
# Remark: another data set of the same source
# T2 sequence (P07333 20-972): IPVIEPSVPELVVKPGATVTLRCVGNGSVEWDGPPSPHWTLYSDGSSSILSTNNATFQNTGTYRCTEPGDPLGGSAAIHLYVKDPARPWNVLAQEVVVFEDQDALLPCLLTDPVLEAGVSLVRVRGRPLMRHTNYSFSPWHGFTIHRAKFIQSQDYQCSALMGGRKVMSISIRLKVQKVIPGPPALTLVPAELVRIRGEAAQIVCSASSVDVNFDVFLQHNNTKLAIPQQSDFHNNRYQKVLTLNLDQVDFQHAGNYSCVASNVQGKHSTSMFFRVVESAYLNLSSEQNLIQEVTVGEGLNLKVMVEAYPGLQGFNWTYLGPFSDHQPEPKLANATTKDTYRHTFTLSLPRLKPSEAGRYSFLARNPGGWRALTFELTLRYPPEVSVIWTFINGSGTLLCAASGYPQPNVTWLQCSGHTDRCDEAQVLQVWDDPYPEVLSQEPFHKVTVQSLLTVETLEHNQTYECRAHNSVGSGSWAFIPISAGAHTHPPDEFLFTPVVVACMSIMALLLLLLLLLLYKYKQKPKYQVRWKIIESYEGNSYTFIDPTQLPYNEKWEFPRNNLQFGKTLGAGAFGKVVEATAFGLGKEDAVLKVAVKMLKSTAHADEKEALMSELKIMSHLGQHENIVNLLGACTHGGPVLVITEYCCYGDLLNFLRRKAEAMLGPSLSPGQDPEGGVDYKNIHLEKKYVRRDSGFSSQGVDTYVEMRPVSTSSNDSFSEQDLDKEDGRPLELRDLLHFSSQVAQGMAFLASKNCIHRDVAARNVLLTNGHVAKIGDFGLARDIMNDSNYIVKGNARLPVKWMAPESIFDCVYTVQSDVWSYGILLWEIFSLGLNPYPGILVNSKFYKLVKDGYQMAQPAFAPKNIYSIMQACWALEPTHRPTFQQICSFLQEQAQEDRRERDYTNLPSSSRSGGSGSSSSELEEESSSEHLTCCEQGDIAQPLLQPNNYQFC
AML-5 bioassay IC50 [nM],Human CD14+ monocytes bioassay IC50 [nM],Binder
0.027,0.067,B1
0.027,0.013,B2
0.073,0.2,B3
0.053,0.133,B4

# Residue numbers refer to the chain shown, from its start.
